Data as given in the supplement of paper PMC3334620.
Over roughly 33,000 sequences, “E-score (-0.5 to 0.5)” has its median near -0.032; the highest 2% begin near 0.36. The list shows a part of the results.

molecular target: T1, Sko1 (UniProt Q02100); test: PBM E-score (8-mer binding enrichment) (E-score (-0.5 to 0.5)); higher = stronger / more preferred TF binding; most listed sequences are background and not binding sites; conditions: protein concentration: 200 nM; construct: GST-full length
T1 sequence: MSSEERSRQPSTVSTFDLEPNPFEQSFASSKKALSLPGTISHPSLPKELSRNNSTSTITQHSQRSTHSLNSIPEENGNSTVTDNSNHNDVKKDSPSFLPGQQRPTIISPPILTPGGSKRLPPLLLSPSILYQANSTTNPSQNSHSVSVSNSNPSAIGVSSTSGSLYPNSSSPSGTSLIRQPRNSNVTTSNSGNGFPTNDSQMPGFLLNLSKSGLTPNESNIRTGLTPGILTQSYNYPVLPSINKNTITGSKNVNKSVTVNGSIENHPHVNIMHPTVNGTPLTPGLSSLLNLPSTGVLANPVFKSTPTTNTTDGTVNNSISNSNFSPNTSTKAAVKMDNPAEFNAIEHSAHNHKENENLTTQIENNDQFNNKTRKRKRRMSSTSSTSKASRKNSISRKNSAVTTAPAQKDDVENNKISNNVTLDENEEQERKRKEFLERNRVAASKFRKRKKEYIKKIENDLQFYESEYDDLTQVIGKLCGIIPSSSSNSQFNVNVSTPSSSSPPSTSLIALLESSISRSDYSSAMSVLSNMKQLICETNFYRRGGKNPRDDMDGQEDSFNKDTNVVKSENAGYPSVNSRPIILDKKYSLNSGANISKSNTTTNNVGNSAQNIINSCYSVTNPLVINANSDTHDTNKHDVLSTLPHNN
How it was run: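 Masliner-normalised scans of fluorescent anti-GST signal were the basis for scoring. That signal came from GST-tagged yeast transcription factors applied at about 100-200 nM to double-stranded universal all-10-mer Agilent arrays on fresh or once-stripped slides. Each ungapped eight-base word, pooled with its reverse complement, received an E-score from the Universal PBM Analysis Suite.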

| Sequence | PBM E-score |
| --- | --- |
| AGGGCTCC | -0.358 |
| AACTCAAG | -0.0772 |
| CGAAAGCG | -0.0459 |
| AGTTGGTA | 0.284 |
| GCGACCCC | -0.285 |
| ACTTGGCG | -0.0916 |
| AAGAATAG | 0.165 |
| AATGGAAC | 0.0765 |
| ACCAGAGC | -0.16 |
| AAGGAGCT | -0.107 |
| CTACATGC | 0.0435 |
| GTCGTATA | 0.269 |
| ATCTGGCA | -0.00449 |
| CCAGACGA | -0.194 |
| ACGGCAAG | -0.201 |
| ACTTGGAA | -0.0891 |
| AATGCCAC | -0.123 |
| AAACTTCG | 0.143 |
| AACAGACG | 0.0476 |
| GCAAAGAC | 0.00382 |
| ACATCGGC | 0.0116 |
| GCATTCAC | 0.183 |
| ACAATAGT | 0.107 |
| AAGAATAA | 0.104 |
| CTGATCAA | -0.104 |

| Sequence | PBM E-score |
| --- | --- |
| CATCGGAG | -0.249 |
| CTGCAAGC | -0.164 |
| CCAGCAGA | -0.14 |
| GAATAGAC | 0.0663 |
| CCAAAAGG | -0.216 |
| GTTGATCA | 0.28 |
| CCTCAATC | 0.0718 |
| ACATAATA | 0.339 |
| GTGGGTGA | 0.00321 |
| GAAACCGA | -0.244 |
| ACTGATGA | 0.219 |
| AATCTAGG | 0.0298 |
| AGCGTGTA | 0.0949 |
| ACAGTGTG | 0.0168 |
| CAAAAGCG | -0.165 |
| ACAAAACT | 0.073 |
| GGAATTCA | -0.0525 |
| CACGGGGG | -0.27 |
| TGACCTCA | 0.216 |
| CAATGCTG | -0.134 |
| GGAGTACA | -0.16 |
| CTTGGCAA | -0.048 |
| CAGATCTG | -0.12 |
| AATTAAGT | 0.146 |
| AATTCAGA | 0.046 |

| Sequence | PBM E-score |
| --- | --- |
| CGACAAAC | 0.00835 |
| ACTGGAGC | -0.238 |
| CGTCGTAC | 0.316 |
| GGCACGAA | 0.0995 |
| TCAAATAA | 0.136 |
| ATTTCTCA | -0.0375 |
| ATGGGTTC | -0.132 |
| AGGGTATA | 0.0602 |
| ACTGTAGA | 0.0113 |
| CAGGTCGC | -0.262 |
| CGGGGTAC | -0.214 |
| CTCCTTTC | -0.146 |
| CAGCGTAC | -0.108 |
| AAGCTTTA | 0.0985 |
| ACACTTCC | -0.107 |
| GACCCAAC | -0.0945 |
| CCAAGGCA | -0.287 |
| ACCGTGTC | -0.238 |
| GGGTCGAC | -0.147 |
| CTCCGGCA | -0.0916 |
| AATGTCGC | 0.0807 |
| GGTCGCAA | -0.046 |
| GCGGGGGA | -0.292 |
| ATCACTTG | 0.0558 |
| CCATCACC | -0.0201 |

| Sequence | PBM E-score |
| --- | --- |
| ATATAGGA | 0.0623 |
| GCCTATCA | -0.153 |
| ATGTGATC | 0.214 |
| CGTATAAA | 0.357 |
| GCGATTGA | 0.0363 |
| CTACGCGC | 0.0742 |
| GCGGTGAC | 0.124 |
| TAAGGCCA | -0.00406 |
| TCTGCGAA | -0.017 |
| CGAGCAAG | -0.129 |
| ACAGTTCT | -0.157 |
| ACGTGTCA | 0.378 |
| CCACAAGC | -0.217 |
| CAACGCCG | -0.142 |
| ACTCAGTA | 0.0665 |
| GACTCAGC | -0.124 |
| CTACTCAA | 0.156 |
| AAGGCACC | -0.217 |
| CCGTGTAA | -0.0449 |
| GCGGGGCA | -0.341 |
| CAGCTTTC | -0.0951 |
| AACAGAAG | 0.00835 |
| GACGACCC | -0.0915 |
| GCATCTAC | 0.0103 |
| CTGCTCTC | -0.0904 |

| Sequence | PBM E-score |
| --- | --- |
| CGCCGTAC | -0.141 |
| ACTCCGAG | -0.137 |
| GAGGGTAA | -0.123 |
| ACCTCGGG | -0.157 |
| ACTCAATG | 0.151 |
| GTTTTATA | 0.19 |
| ACGATTCT | 0.128 |
| ACAAAACC | 0.102 |
| GACAGATC | -0.035 |
| CATTTATC | 0.127 |
| AACTCCCT | 0.00872 |
| AAGCGGAG | -0.235 |
| CTCCGTAA | 0.0488 |
| CGCGACAG | -0.21 |
| CGCACAGA | -0.0087 |
| CCCATCTC | -0.301 |
| TGAACTAA | 0.21 |
| AATGTACC | -0.0961 |
| CGTTTCCC | 0.0898 |
| CCTACTCA | -0.15 |
| GGATAACC | -0.277 |
| CTCGAGAG | -0.107 |
| AAGTTATC | 0.163 |
| GACCTGAC | -0.13 |
| ACAGTGAA | 0.111 |

| Sequence | PBM E-score |
| --- | --- |
| AGAGGGCG | -0.189 |
| GTAGGAGA | -0.131 |
| AAAGACAG | 0.0482 |
| GGCATAAA | -0.0292 |
| CCCAGTAG | -0.0521 |
| AGCCCCTA | -0.306 |
| GAGGCCCA | -0.268 |
| GAGATCGC | -0.0813 |
| ACGGTGAG | -0.132 |
| CCATGGTA | 0.0201 |
| CATCCTGA | 0.0812 |
| CCCCCAAA | -0.296 |
| CCTCTGAG | -0.285 |
| TACCGCAA | 0.154 |
| ACACGTTG | 0.188 |
| ACATCCCC | -0.0506 |
| ATGCCCCG | -0.335 |
| AGAAACGA | 0.0679 |
| CCTAAAGA | -0.0295 |
| AGTGGCTA | -0.0564 |
| ACGAACAC | 0.0924 |
| TGGAAACA | 0.0344 |
| GAGATTCA | -0.109 |
| GTAATCGA | 0.3 |
| TATTATCA | 0.203 |

| Sequence | PBM E-score |
| --- | --- |
| CAATGACG | 0.486 |
| AGGCCTTA | -0.16 |
| ATGTAAGC | 0.0583 |
| TCTAATCA | 0.193 |
| CATGCTTA | 0.0146 |
| CTACGTAG | 0.449 |
| AAGCGTCT | -0.326 |
| GGATTTTA | 0.106 |
| AAATCCTG | 0.00117 |
| CACCGTAC | -0.071 |
| CGGAACTC | -0.229 |
| ACTATCAA | 0.0225 |
| CCAGCCGA | -0.29 |
| ACAAGCGG | -0.209 |
| ATGAGAAC | -0.0458 |
| ATCATGAC | 0.407 |
| AATAGACC | -0.189 |
| GATGTCAC | 0.306 |
| ACCGTAAT | 0.201 |
| AAGATCTT | 0.00357 |
| CGGCGTCA | 0.241 |
| CTTTTTAA | 0.112 |
